From the supplement of paper PMC11417369
± gives the standard deviation of the averaged measurements. Some of the results follow.

tested on: PfAP2-G AP2 domain (GST-tagged); test: gcPBM binding intensity (ln(normalized median fluorescence intensity)); higher = stronger DNA binding
Summary of the method: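 Binding intensity is defined as the maximum Masliner-normalised natural-log median intensity across replicate spots for either probe orientation. It was measured on an Agilent 4 × 180k array of primer-extended double-stranded 36-bp intergenic genomic probes and negative controls, to which GST-tagged P. falciparum DNA-binding domains made in E. coli were applied for 1 h in 1× PBS with 1% milk, 0.2 mg/ml BSA, 0.5% salmon testes DNA and 0.03% Triton X-100. Detection was by Alexa488 anti-GST antibody and scanning at 488 nm.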

In order of rising “gcPBM binding intensity (ln)” value:
1. AAAAAAATAAAATTATATAAAATAAATTTTTATAAT [GTGCAC_negctrl_site587]  9.42 ± 0.099
2. AACAAAAATAATAATCAAATAAATAAATGAAAACAT [CACACA_negctrl_site456]  9.71 ± 0.11
3. TTATAAAAAATTTTAGTGCATATATGATTTATATAT [GTGCAC_site9831]  9.795 ± 0.035
4. TTTCTTTTTTTTTTTGTATATTAAATCTAAAAAGGA [TGCATGCA_negctrl_site431]  9.8 ± 0.38
5. TTTAAATAAAATATTACACACTTAGAAAAATATATA [CACACA_site3663]  9.81 ± 0.12
6. AATATATTTTCCTGCAAACACACATATAAATGTGTA [CACACA_site532]  9.865 ± 0.064
7. TATGATACATAATATACATGCATACACAACATTCAG [TGCATGCA_site487]  9.89 ± 0.071
8. TATATAGCATATTTCACACACACATAATGAATATTA [CACACA_site3546]  9.91 ± 0.16
9. GATATAATGTGTTTGGTATTCTTGATAGATAGTTTT [CACACA_negctrl_site1711]  9.91 ± 0.13
10. TTATGTCATAAATGCACACATATATATATACATATA [CACACA_site1588]  9.915 ± 0.064
11. GGAATTATATGAAATAAACACACATATGTAATATTA [CACACA_site8586]  9.915 ± 0.007
12. TTTTGTAGCAAAAAATAGGAAAAAAAAAAATTAAAT [GTGCAC_negctrl_site8]  9.915 ± 0.007
13. GGAAAATACATTCCAGTGCATTAATTTATTCAACGT  9.925 ± 0.092
14. TTCATTAAATAGAACAAAATAATAATATAACAACAA [GTGCAC_negctrl_site116]  9.94 ± 0.18
15. TTTTTTTTTTTTTTGGTGCGTTTATATATAAATATA  9.94 ± 0.47
16. TTTTTTAAAAAAGTTTTCTGTATTTATATATATATA [CACACA_negctrl_site31]  9.97 ± 0.28
17. ATAAACAAGACGCAACAAAGTAGAAATTAAAAATAA [CACACA_negctrl_site345]  9.97 ± 0.014
18. TAAATACAGAAACACACACACAAATATATACATACA [CACACA_site2880]  9.975 ± 0.021
19. GCCCAACCAAAATATACACACAGTTGAATGAATAAA [CACACA_site2597]  9.975 ± 0.007
20. TTCAAGATTTATTATACACACATATTAATATATATA [CACACA_site573]  9.98 ± 0.35
21. AAAAAAAAAAAAAACACACACATATCTATAATATAT [CACACA_site7481]  10 ± 0.13
22. GTAATATTATAATATACACACATAGAATATAAATAT [CACACA_site6333]  10.04 ± 0.078
23. TGAGAGAGAAACGTAGTGCATAAAATCAAATTTAGA [GTGCAC_site9737]  10.02 ± 0.099
24. AGGCACGTGTTATATACACACATAATCAAATAAACT [CACACA_site7852]  10 ± 0.11
25. ACATTTTATACGATAAAATGTATAAGATTATGAAGA [TGCATGCA_negctrl_site476]  10.01 ± 0.057
26. AGAAAATTAAAAAGAACACACAAATATATATATAAT [CACACA_site5896]  10.045 ± 0.007
27. AACATTTTAAAACAGACACACACCAAAAAAAAAAAA [CACACA_site257]  10 ± 0.37
28. TTTTTTTACAACATTACACACAAATATTCTGTGTTA [CACACA_site5957]  10 ± 0.11
29. GGTTCATATATTAACACACACATACATATTATATAT [CACACA_site2937]  10.1 ± 0.078
30. TTAAAAAGAAAGTTCACACACATATAGATGACGGAA [CACACA_site7268]  10.1 ± 0.092
31. AAATGAAAATAAAGCAACAGAAATATAATGTATTAT [GTGCAC_negctrl_site508]  10.06 ± 0.085
32. ACCTGGACAAAAATAAATAAATAAATAAATAAATGA [GTGCAC_negctrl_site238]  10.1 ± 0.35
33. AAAATCTAATATAATGCACACATAAAAAAAAAATCA [CACACA_site8871]  10.1 ± 0.3
34. TTAAGATACAAAAAAGTGCATATTTTTTAACAAAAA  10.1 ± 0.11
35. ATATTACCCATATATGCACACATTGTAGTTATTTAT [CACACA_site2636]  10.1 ± 0.22
36. AAAATACACCAACACACACACATATATATATATATT [CACACA_site4149]  10.2 ± 0.14
37. AATAATCATAGTTCTACACACCTATATTGCAAAAAA [CACACA_site867]  10.2 ± 0.24
38. AATCGTGTTCTGAATACACACTAATACAAATTTGTA [CACACA_site6058]  10.2 ± 0.13
39. ATATTACAACATTTTATACACACGTGATTATTAATT [CACACA_site2877]  10.2 ± 0.12
40. AAAAAAAAAAAAAACACACACAACACCCATACCTTA [CACACA_site3621]  10.2 ± 0.18
41. GATATGTGACGTTTGGTATTTTTGATGTTGGTAGGA [CACACA_negctrl_site1448]  10.19 ± 0.035
42. AAAAAAAAAAAAAAAACACACATAAATAGCTCAAAT [CACACA_site3973]  10.2 ± 0.11
43. ATGATATACGTAAACACACAAATAAAAAAAATTTAT [CACACA_site7544]  10.3 ± 0.3
44. CCATTTTAAATATGCACACAGATGCACTAACACATT [CACACA_site5099]  10.3 ± 0.26
45. AATTCTTTTTTCAACACACACACACTAGAAAATATA [CACACA_site5681]  10.3 ± 0.3
46. CCATATCTTTTTTGCACACACTACAATAAAACAAAA [CACACA_site4995]  10.4 ± 0.4
47. TGATACTTATGATAAATACACACTTGAAATTAAGGA [CACACA_site1152]  10.4 ± 0.29
48. CACCCATAAATATACACACGCACAACACAAAATAAA [CACACA_site2903]  10.4 ± 0.35
49. GTCCTTCATCATATTTAACACACAGAGAAAAAGCGG [CACACA_site7979]  10.4 ± 0.36
50. CTTTTAATATGTGTAGTGCATTTTTTTTTTTTTTTT [GTGCAC_site9727]  10.4 ± 0.24
51. CAAAACAAAGTTGCCGCACACAGATACGCACCCAAG [CACACA_site3455]  10.6 ± 0.4
52. ATGCTCAAAAGATATGCATGTACAAATATATGAAAT [TGCATGCA_site592]  10.6 ± 0.35
53. AATATATACGCATGCGCACACACAAGTGGGAAATTT [CACACA_site1786]  10.6 ± 0.39
54. TTTATATATTATTAATGTACAAAATTTTTATTGCAT [XGTACX_site3329]  10.6 ± 0.38
55. GAATATAAACATATTACACACATCTATATGTACTTT [CACACA_site8582]  10.7 ± 0.65
56. TGGTACCTTACTTTTACACACTTTTTTTTTTTTTTT [CACACA_site1557]  10.7 ± 0.36
57. ACATTAAGACACATTGCACACGTGCACCCATAGAAA [CACACA_site8029]  10.7 ± 0.55
58. TATATTTGGAAATATTCTCAATTGGTACAAATAAAA [CACACA_negctrl_site1202]  10.8 ± 0.53
59. ATATATATATATACATGTACAAATGTATAACAAATG [XGTACX_site145]  10.9 ± 0.4
60. ATAAATTTATCCAAGTGTACAAAGCTAACATTTTTT [XGTACX_site4399]  10.9 ± 0.57
61. TTGTGATTATATAATCGTACATAATTTTAATCACAC [XGTACX_site398]  11 ± 0.74
62. TAATATGTATTTACAAGTACTAACAAAATATTAAAA [XGTACX_site3379]  11 ± 0.71
63. ATGATGTCTTTATATTGTACATATATGAAGACGTTA [XGTACX_site7751]  11 ± 0.65
64. AAAAATGGAATTATCTGTACATATATAGTTTTTAAA [XGTACX_site5580]  11 ± 0.59
65. TACATCGACCTATGTACATGCAAATTATTTTTATTT [TGCATGCA_site182]  11 ± 0.62
66. TACGATTAAAAAAAATGTACAGATTTTTATAGAATA [XGTACX_site6561]  11 ± 0.66
67. TTAAAGATATACAAAAGTACTTTTTTTTTCGTCATT [XGTACX_site384]  11.1 ± 0.54
68. TCATATGTATAAATTAGTACATATTTAATGGATATA [XGTACX_site3298]  11.1 ± 0.71
69. ATTTTTTTGTGTTTGGTACACACGTTATAAAAAATA [CACACA_site1345]  11.1 ± 0.77
70. TACAAAAATAAATGTTGTACTATTATTTATTTCGAT [XGTACX_site1048]  11.2 ± 0.7
71. TATCAAATGTATATATGTACTTATATTTTTTTTATA [XGTACX_site1501]  11.2 ± 0.74
72. TTTCGTAAAATGAAATGTACTCAAAAGTAAATATAA [XGTACX_site214]  11.2 ± 0.86
73. TTTTGAGTAGCCTATTGTACGAACTTTTTAAATACA [XGTACX_site1224]  11.2 ± 0.93
74. TTAACCTTTTGATATTGTACCCATAATCTAATACAA [XGTACX_site769]  11.3 ± 0.77
75. TATGAATGGTTAAGTACACACATATTAATATATGTA [CACACA_site3490]  11.3 ± 0.99
76. GTTTATAAAATAAGAAGTACTTTATGAGAACCATAT [XGTACX_site5789]  11.3 ± 0.71
77. TAAAAGAAATATACATGTACATAAATATATATATAT [XGTACX_site1276]  11.3 ± 0.54
78. TTTTGGATCATTTGTTGTACATATGCAAAAAAAAAA [XGTACX_site3157]  11.3 ± 0.91
79. ATATAATTACCATATGGTACACACATATATATATGT [XGTACX_site7393]  11.3 ± 0.62
80. ATTTTTTCTAATGGGTGTACTGAAACGTATTTTATT [XGTACX_site6573]  11.4 ± 0.98
81. CTATCTACATAAACGTGTACCCACAAATAAATAAAT [XGTACX_site5210]  11.4 ± 0.79
82. TTTTTTAGTTTTTAGTGTACATAAATAAATAAATAA [XGTACX_site2843]  11.5 ± 0.69
83. TATATTACAAAAAGTACACACATAAATAAATACATA [CACACA_site975]  11.5 ± 1.1
84. ACTTCAAAAATAAACTGTACGTAAAAAAAAAAAAAA [XGTACX_site795]  11.5 ± 1
85. AAAATAATAACATTGTGTACATAAAAAGAAAACCTT [XGTACX_site840]  11.5 ± 0.91
86. CATCCTATTACTTGGTGTACTATTTTATATTGAATA [XGTACX_site1050]  11.5 ± 0.97
87. TTGGTAATAATTTGAGGTACACTGTATAAATTTTTT [XGTACX_site909]  11.5 ± 0.97
88. ACATACATACACCCACGTACGTACCGAAACACCACC [XGTACX_site1212]  11.7 ± 1.1
89. AATAATAAATTATGGTGTACGCATTTGTATATATAC [XGTACX_site5417]  11.7 ± 0.98
